Results reported in PubChem BioAssay (Tox21).
Values joined by “and” are separate entries in the source; they are usually repeats but may differ in a detail not shown here. Identical values can stand only once. Inconclusive results, whose numbers are uncertain, are shown with a selection of clear calls. Where the call is inconclusive, the potency comes from a doubtful curve fit. Active and inactive are the calls of the source. Calls follow the shape of the dose curve; as a rule, active = well fitted curve in the direction sought with a large enough effect in the repeat runs; inconclusive = weak or mixed curves; inactive = no such curve, though single readings can be large; an effect the other way counts as inactive or inconclusive.

What was measured:
[1] = qHTS RealTime-Glo MT Cell Viability Assay in HepG2 cells - 16 hour (AID 1224885); also: nearly all actives have a fitted effect of over 50% in size
How it was run: (§1)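 Compound treatment began 5 h after plating HepG2 cells (600/well) with NanoLuc luciferase and prosubstrate. Plates stayed at 37 C for 40 h; luminescence was captured at six time points, 0 h through 40 h.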

[2] = qHTS RealTime-Glo MT Cell Viability Assay in HEK293 cells - 24 hour (AID 1224886); also: nearly all actives have a fitted effect of over 50% in size
How it was run: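 Quantitative high-throughput screen of the Tox21 10K library in HEK293: cells and RealTime-Glo reagents plated together, compound added at 5 h, luminescence monitored through 40 h at 37 C.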

[3] = qHTS RealTime-Glo MT Cell Viability Assay in HEK293 cells - 8 hour (AID 1224887); also: nearly all actives have a fitted effect of over 50% in size
How it was run: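 HEK293 cells mixed with RealTime-Glo reagents (NanoLuc plus cell-permeant prosubstrate) at 600 cells/well, preincubated 5 h at 37 C/5% CO2, then given 23 nL compound in DMSO. Nonlytic luminescence from viable cells was read at 0, 8, 16, 24, 32 and 40 h.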

[4] = qHTS assay to identify small molecule antagonists of the estrogen receptor alpha (ER-alpha) signaling pathway using the BG1 cell line in the presence of 0.1 nM 17-beta-estradiol - cell viability counter screen (AID 1259241); also: nearly all actives have a fitted effect of over 40% in size
How it was run: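 Estradiol-stimulated (0.1 nM) VM7Luc4E2 cells exposed to compounds 22 hr; viability measured by fluorescence of cleaved CellTiter-Fluor substrate after 30 min.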

[5] = A CellTox Green Cytotoxicity Assay to monitor cytotoxicity in HEK293 cells - 16 hour (AID 1224888); also: nearly all actives have a fitted effect of over 35% in size
How it was run: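 HEK293 cells premixed with CellTox Green dye were seeded at 600 cells/well and left 5 h at 37 C/5% CO2 before pin transfer of 23 nL compound in DMSO. Fluorescence from dye bound to dead-cell DNA was read during 40 h treatment.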

[6] = qHTS RealTime-Glo MT Cell Viability Assay in HepG2 cells - 0 hour (AID 1224889); also: nearly all actives have a fitted effect of over 50% in size
How it was run: as §1

[7] = A CellTox Green Cytotoxicity Assay to monitor cytotoxicity in HepG2 cells - 8 hour (AID 1224890); also: nearly all actives have a fitted effect of over 45% in size
How it was run: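 HepG2 cells were seeded together with the CellTox Green dye at 600 cells/well, left 5 h at 37 C/5% CO2, then given compounds in DMSO. Fluorescence from dye bound to dead-cell DNA was read repeatedly over 40 h of treatment at 37 C.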
Potency is read from the fitted curve at half-maximal effect; tags tell the direction and shape of the fitted curve.

## C=CC(=O)[O-].C=CC(=O)[O-].[Zn+2]
[1]
  Potency: inactive

## CCCCC1C(=O)N(c2ccccc2)N(c2ccc(O)cc2)C1=O (stereo unspecified)
[1]
  Potency: inconclusive: 15.1 µM [cytotoxic, partial curve, poor fit]
[2]
  Potency: inconclusive: 26.8 µM [cytotoxic, single point]
[3]
  Potency: inconclusive: 26.8 µM [cytotoxic, single point]

## OC[C@H]1O[C@@H](n2cnc3c(=S)nc[nH]c32)[C@H](O)[C@@H]1O
[1]
  Potency: inactive
[2]
  Potency: inconclusive: 21.3 µM [cytotoxic, partial curve]

## C=CC(=O)OCC1CC2CC1C1CCC(COC(=O)C=C)C21 (stereo unspecified)
[1]
  Potency: inconclusive: 24.5 µM [cytotoxic, partial curve]
[2]
  Potency: inconclusive: 61.6 µM [cytotoxic, single point]

## Cn1c(N)nc2nc[nH]c2c1=O
[1]
  Potency: inactive
[2]
  Potency: inconclusive: 48.4 µM [cytotoxic, single point]

## Clc1ccc(Nc2nnc(Cc3ccncc3)c3ccccc23)cc1
[1]
  Potency: inconclusive: 21.3 µM [cytotoxic, partial curve, poor fit]
[2]
  Potency: inconclusive: 21.3 µM [cytotoxic, partial curve]
[3]
  Potency: inconclusive: 26.8 µM [cytotoxic, single point]

## CC1=C(CC=O)C(C)(C)CCC1
[1]
  Potency: inactive

## Nc1ccc(S(N)(=O)=O)cc1
[1]
  Potency: inactive

## O=C(CCCCCCCCC#CI)Oc1ccccc1
[1]
  Potency: active: 15.1 µM

## Nc1ccc(N=Nc2ccccc2)c(N)c1
[1]
  Potency: inconclusive: 33.9 µM [cytotoxic, partial curve]
[3]
  Potency: inconclusive: 42.7 µM [cytotoxic, partial curve]
[4]
  Potency: active: 26.7 µM

## O=Cc1ccc(F)cc1
[2]
  Potency: inactive

## COC(=O)c1c(C)cc(O)c(C)c1O
[2]
  Potency: inconclusive: 61.6 µM [cytotoxic, single point]

## CC(C(O)c1ccccc1)N(C)CCOC(c1ccccc1)c1ccccc1 (stereo unspecified)
[1]
  Potency: inconclusive: 26.8 µM [cytotoxic, single point]
[3]
  Potency: inconclusive: 23.9 µM [cytotoxic, single point]
[5]
  Potency: inconclusive: 26.8 µM [activator, single point]
[6]
  Potency: inconclusive: 15.1 µM [rising, partial curve, poor fit]

## CN(C)c1ccc(C2(c3ccc(N(C)C)cc3)OC(=O)c3cc(N(C)C)ccc32)cc1
[1]
  Potency: inconclusive: 24.5 µM [cytotoxic, partial curve]
[3]
  Potency: inactive

## CN1CCCC(CC2c3ccccc3Sc3ccccc32)C1 (stereo unspecified)
[1]
  Potency: inconclusive: 21.3 µM [cytotoxic, partial curve]
[2]
  Potency: active: 23.9 µM
[5]
  Potency: active: 23.9 µM
[6]
  Potency: inconclusive: 23.9 µM [rising, partial curve]
[7]
  Potency: inconclusive: 23.9 µM [activator, single point]

## CC(=O)OCC(=O)NCCCOc1cccc(CN2CCCCC2)c1
[2]
  Potency: inactive

## CC(C)(O)c1ccc(CNC(=O)c2cccnc2Oc2ccc3nonc3c2)cc1
[2]
  Potency: inconclusive: 38.9 µM [cytotoxic, partial curve]

## Oc1c(I)cc(I)c2cccnc12
[2]
  Potency: inconclusive: 26.8 µM [cytotoxic, partial curve, poor fit]

## O=C(Nc1ncc([N+](=O)[O-])s1)c1cccs1
[1]
  Potency: inactive
[6]
  Potency: inactive
[4]
  Potency: inconclusive: 26.6 µM [cytotoxic, partial curve]

## CNC(=S)NN
[2]
  Potency: inconclusive: 6.92 µM [cytotoxic, full curve]

## CN(Cc1cnc2nc(N)nc(N)c2n1)c1ccc(C(=O)N[C@@H](CCC(=O)O)C(=O)O)cc1
[2]
  Potency: inconclusive: 77.6 nM [cytotoxic, full curve] and inconclusive: 107 nM [cytotoxic, full curve]

## O=C(Nc1ccc2c(O)c(N=Nc3ccc(N=Nc4ccc(S(=O)(=O)O)cc4)cc3)c(S(=O)(=O)O)cc2c1)c1ccccc1
[1]
  Potency: inconclusive: 49 µM [cytotoxic, partial curve, poor fit]
[6]
  Potency: inconclusive: 43.6 µM [cytotoxic, partial curve]
[4]
  Potency: active: 12.2 µM

## CCN(CC)CCCN(c1ccccc1)C1Cc2ccccc2C1
[2]
  Potency: inconclusive: 19 µM [cytotoxic, partial curve]

## Nc1ncnc2c1ncn2[C@@H]1O[C@H](COP(=O)(O)O)[C@@H](O)[C@H]1O
[1]
  Potency: inconclusive: 26.8 µM [cytotoxic, single point]
[6]
  Potency: inconclusive: 26.8 µM [cytotoxic, single point]
